Measurements taken from a compilation of properties of binary mixtures (doi:10.1007/s10973-023-12194-1).
Some of these densities may be calculated back from excess volumes.

Assay: xn = mol fraction of the nth substance listed
Conditions: 101.3 kPa

CCCC[NH3+].O=[N+]([O-])[O-] + O
x2 = 0.435
Conditions | mass density [kg/m3]
288.15 K | 1107.2
318.15 K | 1088.3
323.15 K | 1085.2
328.15 K | 1082.1
333.15 K | 1079
338.15 K | 1075.9
343.15 K | 1072.8
348.15 K | 1069.7
353.15 K | 1066.6
358.15 K | 1063.5
363.15 K | 1060.5
368.15 K | 1057.4
373.15 K | 1054.4

CC[NH3+].O=[N+]([O-])[O-] + O
x2 = 0.574
Conditions | mass density [kg/m3]
288.15 K | 1180.7
293.15 K | 1177.5
298.15 K | 1174.2
313.15 K | 1164.6
318.15 K | 1161.4
323.15 K | 1158.2
333.15 K | 1151.8
338.15 K | 1148.6
348.15 K | 1142.1
353.15 K | 1138.9
358.15 K | 1135.7
363.15 K | 1132.5
368.15 K | 1129.3
373.15 K | 1125.9
